According to patent US7041785B1, “B1-bradykinin receptor antagonists and use thereof” (Université de Sherbrooke, priority 1996, dated 2006):
Part of at least one peptide drawing is inferred or uncertain, most often the ends. Non-standard residues stand in square brackets, D forms with d. Residues, ends and D or L forms follow the SMILES beside them. Tyr(3,5-I2) = N[C@@H](Cc1cc(I)c(O)c(I)c1)C(=O)O; d2Nal = N[C@H](Cc1ccc2ccccc2c1)C(=O)O; Hyp = O=C(O)[C@@H]1C[C@@H](O)CN1; Tic = O=C(O)[C@@H]1Cc2ccccc2CN1; dTic = O=C(O)[C@H]1Cc2ccccc2CN1; Ahx = NCCCCCC(=O)O; Sar = CNCC(=O)O

Experiments:
B2 receptor [1] = target: T1, B2 receptor (Cavia porcellus, UniProt O70526); conditions: for G.P.I. α^E: residual agonistic activity at 10 μg/mL in comparison with BK; for G.P.I. pA2: vs BK, Inactive = no detectable antagonistic effect at ≦ 10 μg/ml, F.ag. full agonist, P.ag. partial agonist
T1 sequence (O70526 1-372): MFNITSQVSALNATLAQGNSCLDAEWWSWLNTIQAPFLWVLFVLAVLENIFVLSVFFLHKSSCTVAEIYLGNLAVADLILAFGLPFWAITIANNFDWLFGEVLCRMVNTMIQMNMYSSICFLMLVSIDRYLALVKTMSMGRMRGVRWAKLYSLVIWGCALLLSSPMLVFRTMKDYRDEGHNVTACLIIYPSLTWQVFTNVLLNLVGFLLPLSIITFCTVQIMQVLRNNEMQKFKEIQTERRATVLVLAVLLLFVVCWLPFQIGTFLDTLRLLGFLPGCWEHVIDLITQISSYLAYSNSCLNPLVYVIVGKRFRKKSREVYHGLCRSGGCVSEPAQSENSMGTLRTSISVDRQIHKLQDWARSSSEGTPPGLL
Excerpt: (§1) Tissues were taken from New Zealand white rabbits (1.5–2.5 kg) and Dunken Hartley guinea pigs (250–350 g) of either sex, killed by stunning and exsanguination. Umbilical cords were taken from healthy women 22–40 years old after spontaneous delivery at term. The rabbit jugular vein (RbJV), the guinea pig ileum (GPI), two preparations containing B2 receptors, the rabbit aorta (RbA) (B1 receptor) and the human umbilical vein (HUV), a mixed preparation containing both B1 and B2 receptors^10, were used. Helical strips of RbJV treated with 1 μmol/L of captopril to avoid peptide degradation by the angiotensin-converting enzyme (ACE), alias kininase II were prepared according to Gaudreau et al.^11 Helical strips of RbA devoid of endothelium were prepared according to Furchgott and Bhadrakom^12. Longitudinal segments of GPI were prepared with the procedure described by Rang^13. Helical strips of HUV were prepared according to Gobeil et al.^10. The tissues were suspended in 10-ml organ baths containing warm (37EC), oxygenated (95% O2–5% CO2) Krebs solution of the following composition in mmol/L; NaCl: 118.1; KCl: 4.7; CaCl26H2O: 2.5; KH2PO4: 1.2; MgSO47H2O: 1.18; NaHCO3: 25.0 and D-Glucose: 5.5. The RbA and the HUV were stretched with an initial tension of 2 g, whereas the RbJV and the GPI were loaded with 0.5 g. Changes of tension produced by the various agents were measured with Grass isometric transducers (model FT 03C, Grass Instrument Co., Quincy, Mass.). […] Before testing the drugs, the tissues were allowed to equilibrate for 60–120 min during which time the tissues were repeatedly washed and the tension readjusted every 15 min.
(§2) At the beginning of each experiment, a submaximal dose of bradykinin (BK) (9 nmol/L), was applied repeatedly on the RbJV, the GPI or the HUV to ensure that tissues responded with stable contractions. […] A similar protocol was used for the HUV.
(§3) Repeated applications of a singl and double concentration of BK (on RbJV, GPI and HUV) and of desArg^9BK (RbA and HUV) were made in the absence and in presence of the various peptides to evaluate their apparent affinities as antagonists, in terms of pA2 (-log10 of the molar concentration of antagonist that reduces the effect of a double concentration of agonist to that of a single one)^14. The antagonists were applied 10 min before measuring the myotropic effects of either BK (the B2 receptor agonist) or desArg^9BK (the B1 receptor agonist). […] All kinin antagonists were initially applied to tissues at concentration of 10 μg/mL to measure their potential agonistic activities (α^E) in comparison with BK (in the B2 receptor preparations) or desArg^9BK (in the B1 receptor preparations).

B2 receptor [2] = target: T2, B2 receptor (Oryctolagus cuniculus, UniProt Q28642); conditions: residual agonistic activity at 10 μg/mL in comparison with BK
T2 sequence (Q28642 1-367): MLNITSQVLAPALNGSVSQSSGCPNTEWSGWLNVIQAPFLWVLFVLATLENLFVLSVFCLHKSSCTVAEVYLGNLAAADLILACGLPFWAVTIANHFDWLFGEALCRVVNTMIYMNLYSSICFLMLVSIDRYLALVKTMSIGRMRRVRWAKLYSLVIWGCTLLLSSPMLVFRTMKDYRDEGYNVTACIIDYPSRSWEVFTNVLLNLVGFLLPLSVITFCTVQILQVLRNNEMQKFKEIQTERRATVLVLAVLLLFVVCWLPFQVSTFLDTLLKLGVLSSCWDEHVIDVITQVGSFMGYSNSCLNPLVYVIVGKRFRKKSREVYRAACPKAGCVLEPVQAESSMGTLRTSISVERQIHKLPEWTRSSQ
Excerpt: as §1, §2, §3

SMILES	G.P.I. α^E (B2 receptor [1])	Rb.J.V. α^E (B2 receptor [2])	G.P.I. pA2 (B2 receptor [1])
CC(C)C[C@H](NC(=O)[C@@H]1CCCN1C(=O)[C@H](CO)NC(=O)[C@H](Cc1ccccc1)NC(=O)CNC(=O)[C@@H]1C[C@@H](O)CN1C(=O)[C@@H]1CCCN1C(=O)[C@H](CCCNC(=N)N)NC(=O)[C@@H](N)CCCCN)C(=O)O [Compound 3, Lys(Hyp^3, Leu^8)desArg^9BK]	0	0.02	
CC(C)C[C@H](NC(=O)[C@@H]1CCCN1C(=O)[C@H](CO)NC(=O)[C@H](Cc1ccccc1)NC(=O)CNC(=O)[C@@H]1C[C@@H](O)CN1C(=O)[C@@H]1CCCN1C(=O)[C@H](CCCNC(=N)N)NC(=O)[C@H](N)CCCNC(=N)N)C(=O)O [Compound 4, D-Arg(Hyp^3, Leu^8)desArg^9BK]		0	
CC(C)C[C@H](NC(=O)[C@H]1Cc2ccccc2CN1C(=O)[C@H](CO)NC(=O)[C@H](Cc1ccccc1)NC(=O)CNC(=O)[C@@H]1CCCN1C(=O)[C@@H]1CCCN1C(=O)[C@@H](N)CCCNC(=N)N)C(=O)O [Compound 8, (D-Tic^7, Leu^8)desArg^9BK] (H-RPPGFS[dTic]L-OH; N-terminus and C-terminus assumed)	0.18	0.10	
CC(C)C[C@H](NC(=O)[C@H]1Cc2ccccc2CN1C(=O)[C@H](CO)NC(=O)[C@H](Cc1ccccc1)NC(=O)CNC(=O)[C@@H]1CCCN1C(=O)[C@@H]1CCCN1C(=O)[C@H](CCCNC(=N)N)NC(=O)[C@H](N)CCCNC(=N)N)C(=O)O [Compound 12, D-Arg(D-Tic^7, Leu^8)desArg^9BK] (H-[dR]RPPGFS[dTic]L-OH; N-terminus and C-terminus assumed)	0.02		
CC[C@H](C)[C@H](NC(=O)[C@H]1Cc2ccccc2CN1C(=O)[C@H](CO)NC(=O)[C@H](Cc1ccccc1)NC(=O)CNC(=O)[C@@H]1CCCN1C(=O)[C@@H]1CCCN1C(=O)[C@H](CCCNC(=N)N)NC(=O)[C@H](N)CCCNC(=N)N)C(=O)O [Compound 13, D-Arg(D-Tic^7, Ile^8)desArg^9BK] (H-[dR]RPPGFS[dTic]I-OH; N-terminus and C-terminus assumed)	0.02		
CC[C@H](C)[C@H](NC(=O)[C@@H]1Cc2ccccc2CN1C(=O)[C@H](CO)NC(=O)[C@H](Cc1ccccc1)NC(=O)CNC(=O)[C@@H]1CCCN1C(=O)[C@@H]1CCCN1C(=O)[C@H](CCCNC(=N)N)NC(=O)[C@H](N)CCCNC(=N)N)C(=O)O [Compound 14, D-Arg(L-Tic^7, Ile^8)desArg^9BK] (H-[dR]RPPGFS[Tic]I-OH; N-terminus and C-terminus assumed)	0		
C[C@H](NC(=O)[C@H]1Cc2ccccc2CN1C(=O)[C@H](CO)NC(=O)[C@H](Cc1ccccc1)NC(=O)CNC(=O)[C@@H]1CCCN1C(=O)[C@@H]1CCCN1C(=O)[C@H](CCCNC(=N)N)NC(=O)[C@H](N)CCCNC(=N)N)C(=O)O [Compound 15, D-Arg(D-Tic^7, Ala^8)desArg^9BK] (H-[dR]RPPGFS[dTic]A-OH; N-terminus and C-terminus assumed)	0.47	0	P.ag.
N=C(N)NCCC[C@@H](N)C(=O)N[C@@H](CCCNC(=N)N)C(=O)N1CCC[C@H]1C(=O)N1C[C@H](O)C[C@H]1C(=O)NCC(=O)N[C@@H](Cc1ccccc1)C(=O)N[C@@H](CO)C(=O)N1Cc2ccccc2C[C@@H]1C(=O)N[C@@H](Cc1ccccc1)C(=O)O [Compound 16, D-Arg(Hyp^3, D-Tic^7)desArg^9BK] (H-[dR]RP[Hyp]GFS[dTic]F-OH; N-terminus and C-terminus assumed)	0.63		P.ag.
CC[C@H](C)[C@H](NC(=O)[C@@H](Cc1ccc2ccccc2c1)NC(=O)[C@H](CO)NC(=O)[C@H](Cc1ccccc1)NC(=O)CNC(=O)[C@@H]1CCCN1C(=O)[C@@H]1CCCN1C(=O)[C@H](CCCNC(=N)N)NC(=O)[C@H](N)CCCNC(=N)N)C(=O)O [Compound 23, D-Arg(D-βNal^7, Ile^8)desArg^9BK] (H-[dR]RPPGFS[d2Nal]I-OH; N-terminus and C-terminus assumed)			P.ag.
CC(C)C[C@H](NC(=O)[C@@H](Cc1ccc2ccccc2c1)NC(=O)[C@H](CO)NC(=O)[C@H](Cc1ccccc1)NC(=O)CNC(=O)[C@@H]1CCCN1C(=O)[C@@H]1CCCN1C(=O)[C@H](CCCNC(=N)N)NC(=O)[C@H](N)CCCNC(=N)N)C(=O)O [Compound 24, D-Arg(D-βNal^7, Leu^8)desArg^9BK] (H-[dR]RPPGFS[d2Nal]L-OH; N-terminus and C-terminus assumed)	0		
CC[C@H](C)[C@H](NC(=O)[C@@H](Cc1ccc2ccccc2c1)NC(=O)[C@H](CO)NC(=O)[C@H](Cc1ccccc1)NC(=O)CNC(=O)[C@@H]1CCCN1C(=O)[C@@H]1CCCN1C(=O)[C@H](CCCNC(=N)N)NC(=O)[C@H](N)CCCCN)C(=O)O [Compound 25, D-Lys(D-βNal^7, Ile^8)desArg^9BK] (H-[dK]RPPGFS[d2Nal]I-OH; N-terminus and C-terminus assumed)			P.ag.
CNCC(=O)N[C@@H](Cc1ccc(O)cc1)C(=O)NCCCCCC(=O)N[C@@H](CCCCN)C(=O)N[C@@H](CCCNC(=N)N)C(=O)N1CCC[C@H]1C(=O)N1CCC[C@H]1C(=O)NCC(=O)N[C@@H](Cc1ccccc1)C(=O)N[C@@H](CO)C(=O)N1CCC[C@H]1C(=O)N[C@@H](CC(C)C)C(=O)O [Compound 28, SarTyrεAhxLys(Leu^8)desArg^9BK]	0.19	0	
CC[C@H](C)[C@H](NC(=O)[C@@H](Cc1ccc2ccccc2c1)NC(=O)[C@H](CO)NC(=O)[C@H](Cc1ccccc1)NC(=O)CNC(=O)[C@@H]1CCCN1C(=O)[C@@H]1CCCN1C(=O)[C@H](CCCNC(=N)N)NC(=O)[C@H](CCCCN)NC(=O)CCCCCNC(=O)[C@H](Cc1ccc(O)cc1)NC(=O)CNC)C(=O)O [Compound 29, SarTyrεAhxLys(D-βNal^7, Ile^8)desArg^9BK] (H-[Sar]Y[Ahx]KRPPGFS[d2Nal]I-OH; N-terminus and C-terminus assumed)	0		
CC[C@H](C)[C@H](NC(=O)[C@@H](Cc1ccc2ccccc2c1)NC(=O)[C@H](CO)NC(=O)[C@H](Cc1ccccc1)NC(=O)CNC(=O)[C@@H]1CCCN1C(=O)[C@@H]1CCCN1C(=O)[C@H](CCCNC(=N)N)NC(=O)[C@H](CCCCN)NC(=O)CCCCCNC(=O)[C@H](Cc1cc(I)c(O)c(I)c1)NC(=O)CNC)C(=O)O [Compound 30, SarTyr(3,5-I)εAhxLys(D-βNal^7, Ile^8)desArg^9BK] (H-[Sar][Tyr(3,5-I2)][Ahx]KRPPGFS[d2Nal]I-OH; N-terminus and C-terminus assumed)	0		
